In the supplement of paper PMC10338343:
± gives the standard deviation. This is a selection; strong and weak results do not stand in their true shares.

Tested on: MIWI (PIWIL1) piRISC loaded with L1MC piRNA (30 nt)
Assay: pre-steady-state target cleavage rate (min^-1); MIWI and MILI are mouse PIWI proteins and EfPiwi is from a freshwater sponge; tags in brackets are library labels; higher = faster piRNA-guided slicing of the target
Settings: guide: L1MC piRNA 5'p-UAACUAAAUACUAUGCAAGCUGUAGGUCCU
How it was run: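 The pre-steady-state cleavage rate was derived from a burst-and-steady-state fit of Cleave-'n-Seq data. For these assays, 1 nM active affinity-purified piRISC loaded with a single synthetic guide was mixed with […] a transcribed, DNA-blocked target RNA library in HEPES–potassium acetate buffer at 33 °C, with or without 500 nM GTSF1 partner protein, for 0–8 or 0–960 min. Sequencing counts of uncleaved targets were normalised to depth and to weakly complementary targets, and k3 was capped at 0.0001 min^-1 after three trials were pooled.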

[1] = auxiliary factor: 500 nM mouse GTSF1
[2] = auxiliary factor: none (no GTSF1)
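Note: 1 nM active piRISC with 0.1 nM target library at 33 °C single turnover.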

Sequence	pre-steady-state target cleavage rate [1]	pre-steady-state target cleavage rate [2]
UCCUGCUACAGUUGCAUAGUAUUUAGUUA	0.787 ± 0.045	0.00425 ± 0.0025
UCCUGGAUCACCUUGCAUACUAUUUAGUUA	0.0963 ± 0.017	0.00902 ± 0.002
UCGAGCUACUGCUUGCAUAGUAUUUAGUUA	1.15 ± 0.053	0.0574 ± 0.0096
UCCUGGUACAGCUUGCAUAGUAUUUACUUA	0.158 ± 0.028	0.0162 ± 0.0034
AGCACCUACAGCUUGCAAAGUAUUUAGUUA	0.829 ± 0.063	0.0263 ± 0.0047
UGGACCUACAGCUUGCAUAGUAAUUUGUUA	0.395 ± 0.04	0.0154 ± 0.0037
UCCUGGUACACCUUGCAUAGUAUUUUGUUA	0.436 ± 0.1	0.00901 ± 0.0027
UGGACCUACAGCUUGCAUAGUACUUAGUUA	1.09 ± 0.074	0.0405 ± 0.0076
UGGUGCUACAGCUUGCAUAGUAUUUAGUAA	0.607 ± 0.063	0.0318 ± 0.0064
AGGACCUACAGCUUGCAUAUAUUUAGUUA	0.59 ± 0.061	0.00545 ± 0.0021
UCCUGGAUGUGCUUGCAUAGUAUUUACGUUA	0.277 ± 0.026	0.037 ± 0.012
UCCUGGAUCAGCUUGCAUAGUAUUUAGGUUA	0.777 ± 0.051	0.0343 ± 0.0079
UCGACCUACAGCUAGCAUACUAUUUAGUUA	0.349 ± 0.023	0.0141 ± 0.0029
UCGACCUACAGCUUGCAUAGUAUUAUGUUA	0.434 ± 0.029	0.0214 ± 0.0048
UCCUGGAUGAGCUUGCAUUGUAUAUAGUUA	0.0647 ± 0.0061	0.00744 ± 0.0031
AGGACCUACUAGCUUGCAUAGUAUUUAGUUA	0.655 ± 0.033	0.0598 ± 0.011
UCCUGCUACUGCUUGCAUAGUAUUUACUUA	0.201 ± 0.022	0.0237 ± 0.0035
UCCUGGAUCAACUUGCAUAGUAUUUAGUUA	1.01 ± 0.051	0.0248 ± 0.0054
UCGACCUACAUCUUGCAUAGUAUUUAGUUA	1.61 ± 0.043	0.077 ± 0.014
UGGACCUACAGCUUGCAUUGAAUUUAGUUA	0.208 ± 0.02	0.00966 ± 0.0034
